Assay results taken from PMC4336329 (PLoS ONE, 2015).
Out of some 310,000 compounds screened, about 2,200 (0.71%) showed an effect of 50% or more. The effect is printed as a negative number. This is one part of the list.

target: human ether-à-go-go-related gene (hERG) potassium channel (human, UniProt Q12809); test: primary screen, population patch clamp on CHO cells stably expressing hERG
Sequence (Q12809 whole entry, looked up): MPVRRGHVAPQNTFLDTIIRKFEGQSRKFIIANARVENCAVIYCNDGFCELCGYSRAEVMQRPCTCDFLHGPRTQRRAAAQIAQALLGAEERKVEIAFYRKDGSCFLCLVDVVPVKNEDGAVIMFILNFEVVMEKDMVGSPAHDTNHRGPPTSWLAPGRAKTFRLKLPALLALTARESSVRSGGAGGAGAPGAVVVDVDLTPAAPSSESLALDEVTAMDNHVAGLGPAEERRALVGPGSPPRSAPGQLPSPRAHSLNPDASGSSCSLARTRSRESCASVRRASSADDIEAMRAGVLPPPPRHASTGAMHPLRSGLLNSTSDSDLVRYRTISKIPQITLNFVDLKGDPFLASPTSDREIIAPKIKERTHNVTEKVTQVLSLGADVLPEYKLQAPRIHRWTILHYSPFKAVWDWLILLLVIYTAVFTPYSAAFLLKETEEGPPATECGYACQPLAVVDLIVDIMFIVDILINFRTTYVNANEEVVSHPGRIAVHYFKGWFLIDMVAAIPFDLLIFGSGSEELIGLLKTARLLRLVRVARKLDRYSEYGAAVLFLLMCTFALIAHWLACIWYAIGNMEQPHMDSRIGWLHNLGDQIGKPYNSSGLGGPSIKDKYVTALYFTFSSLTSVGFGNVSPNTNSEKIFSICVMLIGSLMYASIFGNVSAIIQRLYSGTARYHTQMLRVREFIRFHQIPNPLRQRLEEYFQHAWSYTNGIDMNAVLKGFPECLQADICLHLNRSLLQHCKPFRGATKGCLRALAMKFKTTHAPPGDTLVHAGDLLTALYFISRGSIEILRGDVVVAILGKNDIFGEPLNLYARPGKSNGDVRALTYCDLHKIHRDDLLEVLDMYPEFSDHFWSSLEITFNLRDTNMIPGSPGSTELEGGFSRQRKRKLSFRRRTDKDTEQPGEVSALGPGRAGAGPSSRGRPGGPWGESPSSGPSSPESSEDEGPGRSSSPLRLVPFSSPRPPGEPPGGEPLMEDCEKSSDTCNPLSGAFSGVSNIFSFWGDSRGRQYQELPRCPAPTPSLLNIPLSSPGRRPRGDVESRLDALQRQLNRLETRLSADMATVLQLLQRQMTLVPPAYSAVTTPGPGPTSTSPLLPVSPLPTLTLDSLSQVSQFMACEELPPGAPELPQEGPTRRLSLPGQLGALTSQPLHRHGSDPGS

Row | SMILES | hERG current change (%, negative = inhibition) at 1uM [%]
1 | COc1ccccc1NC(=O)C(C)OC(=O)CSCC(=O)Nc1ccc(C)cc1C (stereo not shown) | 8.65
2 | Cc1noc(C)c1C(=O)NC1CCCc2ccccc21 (stereo not shown) | -3.02
3 | Cc1c(C(=O)OCCOc2ccc(Br)cc2)sc(=S)n1C | 3.47
4 | COc1nc(-c2ccccc2)cc(C(F)(F)F)n1 | -8.54
5 | CCOc1cc(NC(=O)Nc2ccccc2)c(OCC)cc1NC(=O)CC | 17.4
6 | CCCOc1ccc(-c2c(C(=O)N/N=C/C3CC=CCC3)nnn2-c2nonc2N)cc1 (stereo not shown) | 18.3
7 | Cc1nn(C(=O)CCC(=O)NCc2ccccc2Cl)c2ccccc12 | 14.4
8 | O=C(NN1C(=O)C2C3C=CC([C@@H]2C1=O)C31CC1)c1ccccc1 (stereo partly shown) | 14.2
9 | Cc1cccc(-n2c(CNC(=O)c3ccc(S(=O)(=O)N4CCCC4)cc3)n[nH]c2=S)c1 | 3.32
10 | CCc1ccc(-c2nnn(Cc3nn[nH]n3)n2)cc1 | -6.68
11 | CC(C)Nc1nc(Cl)nc(NC(C)C)n1 | 16.9
12 | CC(=O)C1=C(C)Nc2ncnn2C1c1cccc(O)c1 (stereo not shown) | 20.9
13 | CN1C(=O)SC(Nc2ccc(F)cc2)C1=O (stereo not shown) | 13.3
14 | O=C(NN1C(=O)C2C3C=CC(C3)C2C1=O)c1ccccc1 (stereo not shown) | 13
15 | Cc1ccc(SCC(=O)NCCN2C(=O)CSC2=O)c(C)c1 | 3
16 | Cc1cc(NS(=O)(=O)c2ccc(NC(=O)COc3ccccc3Cl)cc2)no1 | -11.6
17 | N#Cc1nc(-c2ccc(OCc3ccc(Cl)cc3)cc2)oc1N1CCC(C(N)=O)CC1 | 12.6
18 | COc1ccc(OC2CCN(S(=O)(=O)c3ccc(C(C)=O)cc3)CC2)cc1 | 12.3
19 | Cc1ccc(C)c(N(C)S(=O)(=O)c2ccc3[nH]cc(C(=O)NCCN4CCOCC4)c(=O)c3c2)c1 | 4.42
20 | O=C(c1cc(-c2cccs2)on1)N1CCN(c2ccccc2)CC1 | 10.7
21 | CCOC(=O)c1cnn(-c2ncnc3sc(CC)cc23)c1N | 13.8
22 | Cc1ccc(C(=O)COC(=O)c2ccc(O)cc2)cc1 | 14.9

Row | SMILES | hERG current change (%, negative = inhibition) at 1uM [%]
23 | Cc1ccccc1NC(=O)c1cccc(OCc2c(C)noc2C)c1 | -8.17
24 | CCCS(=O)(=O)N1CCC(C(=O)NCCc2ccc(C)cc2)CC1 | -2.21
25 | CN(CCOc1ccc(F)cc1)Cc1ccccc1.O=C(O)C(=O)O | 18.7
26 | Cc1nn(S(=O)(=O)c2cccc([N+](=O)[O-])c2)c(C)c1S(=O)(=O)N1CCOCC1 | 12.9
27 | Cn1c(SCc2nc3cc(C(=O)O)ccc3c(=O)[nH]2)nnc1C(F)(F)F | 6.49
28 | Cc1cc(C)cc(NC(=O)COC(=O)c2ccc3c(c2)OCCO3)c1 | 5.92
29 | COc1ccc(NC(=S)NNS(=O)(=O)c2ccc3ccccc3c2)c(OC)c1 | 13.6
30 | Cc1cc(C(=O)OCC(=O)Nc2ccc(F)cc2F)c(C)n1C1CC1 | 10.5
31 | Cc1ccc(-c2noc(C3CCCN(C(=O)C4CCCCC4)C3)n2)o1 (stereo not shown) | 6.66
32 | COc1cc(/C=C2/SC(=Nc3ccc(O)cc3)NC2=O)cc(OC)c1O | 10.9
33 | CC(C)C(=O)N(Cc1ccccc1)S(=O)(=O)c1ccc2c(c1)oc(=O)n2C | -2.14
34 | Cl.c1coc(Cn2nnnc2CN2CCN(C3CCCC3)CC2)c1 | 7.37
35 | CC(C)[C@@H]1C=C(C(=O)O)O[C@H](OCCCCO)C1 | 9.78
36 | COc1cc(C(=O)NCCOc2ccc(Cl)cc2)ccc1OCc1c(C)noc1C | 3.61
37 | C/C(=N\O)C(C)Oc1ccc(Cl)cc1 (stereo not shown) | 0.586
38 | O=C(CCC1CCCCC1)Nc1ccc(S(=O)(=O)Nc2nccs2)cc1 | -3.5
39 | CC1(C)CC(NC(=O)C23CCC(C)(C(=O)C2=O)C3(C)C)CC(C)(C)N1 (stereo not shown) | 9.67
40 | CN1CCN(c2ccc(S(=O)(=O)N3CCCCC3)cc2NC(=O)c2ccc(F)cc2F)CC1 | -31.9
41 | Cc1ccc(-c2nnn(CCC(=O)N3CCCCC3C)n2)cc1 (stereo not shown) | 0.0185
42 | Cc1ccc2nc(SCC(=O)Nc3cc(C)on3)nc(=O)n2c1 | 18.6
43 | CCOC(=O)CSC1=C(C#N)C(c2ccc(C)o2)CC(=O)N1 (stereo not shown) | 12.5
44 | N#CC12CCCCC1CC1CCCCC1(C#N)N2N (stereo not shown) | 10.8

Row | SMILES | hERG current change (%, negative = inhibition) at 1uM [%]
45 | COc1ccc(C(c2c(C)n(C)n(-c3ccccc3)c2=O)c2c(C)n(C)n(-c3ccccc3)c2=O)cc1O | 13.6
46 | COc1cccc(C(C(=O)NC(C)(C)C)N(Cc2ccc(C)cc2)C(=O)CCC(=O)Nc2cc(C)on2)c1OC (stereo not shown) | 8.21
47 | O=C(/C=C/c1ccc(F)cc1)NC(=S)N1CCN(c2ccccn2)CC1 | 7.5
48 | Cc1ccc(C)c(N(C(=O)CCC(=O)Nc2cc(C)on2)C(C(=O)NC2CCCC2)c2ccco2)c1 (stereo not shown) | 13.3
49 | Cc1ccc(OCC(=O)OC(C)CN(C)Cc2ccccc2)cc1.Cl (stereo not shown) | 8.2
50 | COC(=O)/C(NC(C)=O)=C(\C)c1ccc(Cl)cc1 | 8.69
51 | O=C(NNc1ccc([N+](=O)[O-])cc1)Nc1ccccc1 | -3.62
52 | CCc1nnc(NC(=O)CSc2nnc(-c3ccco3)n2CCOC)s1 | 9.17
53 | COc1cccc(NC(=O)C2C3C=CC4(O3)C2C(=O)N(CCCN2CCC(C)CC2)C4C(=O)NC2CCCCC2)c1 (stereo not shown) | 12.4
54 | COc1ccc(CCNC(=O)C(=O)NCC2OCCN2S(=O)(=O)c2ccc(F)cc2)cc1OC (stereo not shown) | 2.94
55 | CC1CCN(CC(=O)N2CC(=O)Nc3ccccc32)CC1 | 17
56 | Cc1cc2occ(CC(=O)O)c2cc1C | 8.08
57 | COc1ccc(/C=C/C(=O)OCC(=O)NC2CCCC(C)C2C)cc1S(=O)(=O)N1CCOCC1 (stereo not shown) | 16.9
58 | Cc1ccc(OCC(O)Cn2c3ccccc3c3ccccc32)cc1 (stereo not shown) | 16.8
59 | O=C(CN1CCCC1)OCCCC1CCCCC1 | 9.53
60 | N/C(=N\OC(=O)COc1cc(Cl)c(Cl)cc1Cl)c1ccccn1 | 19.6
61 | CCOC(=O)C1=C(CN2CCCCC2)NC(=O)NC1c1cc(C)ccc1C (stereo not shown) | 8
62 | Cn1ncc(C#N)c1/N=C/N1CCCCCC1 | 9.23
63 | COc1ccc(S(=O)(=O)N2CCOC2CNC(=O)C(=O)NCCc2c[nH]c3ccccc23)cc1 (stereo not shown) | 0.107
64 | Cc1c(Cl)c([N+](=O)[O-])nn1CC(=O)NCc1ccco1 | 15.3
65 | Cc1nc2ccccc2c(=O)n1CCCO | 10.1
66 | Cc1cccc(-c2noc(CNC(=O)c3ccoc3C)n2)c1 | 8.65

Row | SMILES | hERG current change (%, negative = inhibition) at 1uM [%]
67 | Cc1ccnc(NS(=O)(=O)c2ccc(Cl)nc2)c1 | 3.4
68 | COCCNC(=O)CN1C(=O)NC(c2ccccc2)(c2ccccc2)C1=O | 5.18
69 | O=C1CC2(CCCC2)C(=O)N1CN1CCN(S(=O)(=O)c2ccc(Cl)c(Cl)c2)CC1 | 4.47
70 | COc1ccc(N(C)S(=O)(=O)c2ccc3c(c2)CC(C)N3C(=O)C2CC2)c(OC)c1 (stereo not shown) | 9.16
71 | O=[N+]([O-])c1ccc2nc(Cl)nc(-c3ccccc3)c2c1 | -2.52
72 | Cc1nn(CCC#N)c(C)c1Oc1ccccc1O | 11
73 | O=C(CCC1N=C2c3ccccc3N=C(SCc3cccc(Cl)c3)N2C1=O)NCc1ccco1 (stereo not shown) | 3.46
74 | CC(Sc1nncs1)C(=O)NCC(=O)Nc1ccc(F)c(F)c1F (stereo not shown) | 12.7
75 | Cc1ccc(C(=O)NNC(=O)c2ccc(NC(=O)C(C)(C)C)cc2)cc1 | 11.1
76 | Cc1ccc(OCc2nnc(SCC(=O)c3ccccc3)n2-c2ccccc2)cc1 | 10.1
77 | CNS(=O)(=O)c1ccc(N2CCCC2=O)c([N+](=O)[O-])c1 | -3.75
78 | O=C(Cn1nnc(-c2ccccc2NC(=O)C2CC2)n1)NC1CCCCC1 | 7.76
79 | Cc1[nH]nc2c1C1(CCN(Cc3ccccc3)CC1)C(C#N)=C(N)O2 | -24.5
80 | CCOC(=O)C1=C(c2ccccc2)N=C2SCC(=O)N2C1c1ccc(O)c(OC)c1 (stereo not shown) | 9.75
81 | CC(=O)NC(c1cc(F)c2cccnc2c1O)C1CC1 (stereo not shown) | 1.05
82 | Cc1ccn2c(CNCc3cnn(C)c3)c(C(=O)N3CCCCCC3)nc2c1 | 5.85
83 | C[C@H](NC(=O)c1nc[nH]c1C(=O)NCC(=O)OCc1ccccc1)C(=O)OCc1ccccc1 | 7.04
84 | CCOc1ccc2nc(SCc3ccc(CC(=O)O)cc3)c(C#N)cc2c1 | 13.4
85 | O=C(NCc1cccnc1)/C(=C\c1ccc(-c2ccc(Cl)c(Cl)c2)o1)S(=O)(=O)c1ccccc1 | 7.52
86 | CCCS(=O)(=O)c1nc(S(=O)(=O)c2ccc(C)cc2)c(NCCCn2ccnc2)s1 | 0.344
87 | COc1ccccc1Nc1nc(N)nc(CSc2nnc(C)s2)n1 | 11.9
88 | COC(=O)c1cccc(NC(=O)Cn2cnc3c2c(=O)n(C)c(=O)n3C)c1 | 12.3
